# Read counts are not given, so values of variants with three or more changes are uncertain.
# B1: LINE1-mini (parent)
# chain: GGCAGAGCUCAACACAGCGUGGCAAAGUGGCUGUGGCUAGACUGCC
# Variants of: B1
# Assay: self-cleavage, relative activity (ratio to wild type); higher = more cleavage; in vitro, sequencing; the parent is a self-cleaving ribozyme
row,Variant,self-cleavage
1,G27A G33C C45G C46U,0.04
2,A12G C23U G33C,0.04
3,U9G A16C C42G,0.01
4,G22A U34G A41C,0.03
5,G2C A11U A26U,0.02
6,A12G C18A A25G,0.03
7,G7C A16U G17A G22C C23U U38G,0.02
8,G5A A6U C10U G17C A24U,0.07
9,G1A A4U G5U A11G A16C G17U G21U C31A,0.03
10,A16C A39U G44A C46U,0.01
11,A6C G7A A26U A41C,0.14
12,G2C A11U C13U C15G A25C C37A,0.01
13,G2U U9G G40A,0
14,G2U U9A G21U C23A U34C,0.09
15,A25C G27U U28G U43A,0.17
16,G19A G36A C45G,0.19
17,G5U A12U C18A,0.12
18,A14U C42U G44A,0.09
19,G30C U38C A41C,0.01
20,C10A G17C A26G C45U,0.02
21,A4G G17C G30U,0.06
22,G5A U20G U38G,0.04
23,G2U C31G A39G,0.01
24,G7U U9A G27U C31G U32C C46A,0.21

row,Variant,self-cleavage
1,A6G G17A G21U G36U C37A,0.05
2,G1U U38G A39G,0
3,U20A G29U C46U,0.21
4,C3A G5C C23U,0.09
5,C3A G7C U32A G44A,0.04
6,G5U C8G C31A,0.07
7,A4C G17A C46G,0.12
8,C3A A6G U34G G35U,0.3
9,G22C C31U C45G,0.08
10,G2A A11U C13A A14G G22U G33A,0.04
11,A4U C15G A24C G33C,0.2
12,C23G G27U C37U C46G,0.03
13,A4U G5U U20G U28A C37U,0.01
14,G5U A6G G22C G27C,0.05
15,C10U G19C G30U,0.09
16,G22C U28G G29A G30A A39U,0.17
17,A4G G19A U34C,0.2
18,G19C C23U A25G,0.25
19,C15U A25U A26C C37U G40U,0.02
20,G1C A14U G30A,0.04
21,C18U G19U C37G,0.03
22,C8A G21U U38A,0.04
23,G27C C37A G40U C45U,0.03
24,G17A C18A U28A,0.01

row,Variant,self-cleavage
1,G1A A6U C18G C37U,0.07
2,G1U C18A G27U C31A,0.11
3,G7A C15G G30U,0.46
4,C3A A26G G29A G44U,0.86
5,A14C A24U C31U U43C C46U,0.02
6,G5U C23A G36U,0.06
7,A11C A12C A24C G35U,0.04
8,A16C C31G C42A,0
9,C3U A25C G30U G44C,0.09
10,A4C A6U A14C,0.03
11,C3A C10G U20C G21U A26G A39C,0.01
12,A4G A12G G33C,0.06
13,A14C G21C A25C U38A G40U C45U,0.02
14,G17U C23U C37A C45A,0
15,A4U U20G U34G,0.04
16,G1U G21U C23G U38C A41C,0.02
17,G2C U20C A24G C31A,0.07
18,U9G G17A C31A,0.06
19,C18G G33C G35A,0.07
20,A6C C13G A14U,0.26
21,A14C G27U U38G,0.02
22,G22A G29C C45U C46U,1.19
23,G21C C23U A41G,0.09
24,C3A G5U G35A C46A,0.04

row,Variant,self-cleavage
1,G5C A39U G44C,0.06
2,G30U A39C C46G,0.23
3,C15G G17U U43A G44A,0.03
4,A6U C13U C31U A41U,0.14
5,C15G A16C G29U,0.04
6,G2U A25G C31U G33U G40U,0.04
7,G1C A6C G19U U20G G27A C46U,0.04
8,C8G G19C G21A G27U,0.03
9,A6G C31A A41C C45G,0.01
10,G19A U20A C31G G36U,0.06
11,C8U A11G C23G G27U C31G U32C,0.02
12,C15G G19U U32C C45A,0.01
13,C8G U20A U43C,0
14,G7C U9C G21U,0
15,G21C G40U G44C,0.08
16,U28G G35U C37A,0.19
17,G1U G7A C10U U20G G33A,0.01
18,C18A G35A C42G,0.03
19,C23U A24G U28C U43A,0.05
20,G2A G5U C10U G22C,0.04
21,C3A G40C U43C C46A,0.08
22,C3G C13G C42G C46G,0.01
23,C3A A26C G30U G35C G36A C37U U38A,0.21
24,G1U C23A A39U,0.46

row,Variant,self-cleavage
1,G2U C37A A41U,0.06
2,G17C A24U U28G G33A G35U A41C,0.07
3,G5U C10A G30A G35C,0.03
4,C3A U9G C10A C15U A16C C18G U34G G36A G44A,0.02
5,A11C U28A G30C C37A,0.01
6,C18A A24U C37G C45A,0.01
7,G2A C8G C15G G44U,0.05
8,C3U G7A G44U C46U,0.06
9,C13A A24G U34G U38A,0.02
10,A6U C8G G21A A41U,0.17
11,A14U G35U U38A A39U,0.12
12,G1C U9A A26C G36U,0.03
13,G19C G27U C46U,0.12
14,G1C G5U G7C A25U,0.14
15,G5A U9A A24U,0.35
16,G5C A6C A16G U20A,0.05
17,G1C G22C U32C,0
18,G1C G35C C46A,0.03
19,A4G G22U U34A C46A,0.37
20,C10A G17C C46G,0.05
21,A26C C31G A41U,0.06
22,A4C A16C G35U C45G,0.22
23,A41G U43G G44C,0.04
24,C13U A14G A25G G40A,0.04

row,Variant,self-cleavage
1,A16U A26U C46A,0.05
2,C15A G17C G29C,0.05
3,C3G G5A C8A G27U G35C,0.2
4,A12C G22A A26U G40C,0
5,C10G C13G G19C A24U C31A U32G G35U U38C,0
6,G2C U9A C13A A24C G44U,0.09
7,C18A C23G G27C G30U,0.95
8,A12G C13G C37A,0.04
9,U20A A26U U28G,0.09
10,G5A A12U C18G,0.04
11,A4U U28C A39U G44A,0.03
12,A4U C31U G40A,0.04
13,A4U C10G G29U G30C,0.01
14,C10A C18U A26C G35C A39G,0.01
15,C10A U20C G36U,0.02
16,C8A G17C C23A U34C,0.09
17,G1U G36C C46U,0.03
18,C3A G40C U43A,0.16
19,C8A C18U G33C G36A,0.2
20,G7C G17A G30A U34G U38A,0.01
21,C10A G27A C42U G44U,0.01
22,C3G A12U A16G G22U U28C,0.12
23,A12G C13G G33A,0.03
24,A11U C31U C37U C42U,0.01

row,Variant,self-cleavage
1,C8U C23G C42U,0.02
2,C8U A24C U32G,0.03
3,G1C C23U G35U C42U,0.01
4,A12U C13G G19U U20A U32A G40A,0.01
5,G5C C10G U20C A25C,0.01
6,A11G A24C A26G U32C C37U A39G,0
7,A24U A26G U28C C37G C42A,0.05
8,C13A C15A C31G G44A,0.05
9,A4G A14U U28G G30U,0.15
10,C3G C8U A41U,0.36
11,A6C U9A C13U C37U,0.16
12,G7U A12G U28A U43C,0.01
13,A6U C10G C23A,0.02
14,A11C G29U G30U G40A A41U,0.01
15,A4U A25C G33U U38C,0.03
16,G2U C3G A4U G44U,0.4
17,C3U G7A U9A C37U G44A,0.04
18,C23U C37A G44C,0.03
19,C8U A11U G36U,0
20,G7C C18A G44A,0.17
21,G1C A11U G21A U38G,0
22,G19C A25U G33A,0.05
23,A4C G35A C37A C45U,0.05
